Data on 42 molecules can be found in article PMC4336329 (PLoS ONE, 2015).

Each structure is given as a SMILES string. Screen size: about 310,000 compounds; about 14,000 (4.5%) showed an effect of 50% or more. The effect is printed as a negative number. The list shows a part of the results.
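Also: peak tail current of the secondary pulse compared with the same well before compound.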

For the experiment, the target named is human ether-à-go-go-related gene (hERG) potassium channel (human, UniProt Q12809). In words: primary screen, population patch clamp on CHO cells stably expressing hERG.
Chain of human ether-à-go-go-related gene (hERG) potassium channel (Q12809 whole entry, looked up): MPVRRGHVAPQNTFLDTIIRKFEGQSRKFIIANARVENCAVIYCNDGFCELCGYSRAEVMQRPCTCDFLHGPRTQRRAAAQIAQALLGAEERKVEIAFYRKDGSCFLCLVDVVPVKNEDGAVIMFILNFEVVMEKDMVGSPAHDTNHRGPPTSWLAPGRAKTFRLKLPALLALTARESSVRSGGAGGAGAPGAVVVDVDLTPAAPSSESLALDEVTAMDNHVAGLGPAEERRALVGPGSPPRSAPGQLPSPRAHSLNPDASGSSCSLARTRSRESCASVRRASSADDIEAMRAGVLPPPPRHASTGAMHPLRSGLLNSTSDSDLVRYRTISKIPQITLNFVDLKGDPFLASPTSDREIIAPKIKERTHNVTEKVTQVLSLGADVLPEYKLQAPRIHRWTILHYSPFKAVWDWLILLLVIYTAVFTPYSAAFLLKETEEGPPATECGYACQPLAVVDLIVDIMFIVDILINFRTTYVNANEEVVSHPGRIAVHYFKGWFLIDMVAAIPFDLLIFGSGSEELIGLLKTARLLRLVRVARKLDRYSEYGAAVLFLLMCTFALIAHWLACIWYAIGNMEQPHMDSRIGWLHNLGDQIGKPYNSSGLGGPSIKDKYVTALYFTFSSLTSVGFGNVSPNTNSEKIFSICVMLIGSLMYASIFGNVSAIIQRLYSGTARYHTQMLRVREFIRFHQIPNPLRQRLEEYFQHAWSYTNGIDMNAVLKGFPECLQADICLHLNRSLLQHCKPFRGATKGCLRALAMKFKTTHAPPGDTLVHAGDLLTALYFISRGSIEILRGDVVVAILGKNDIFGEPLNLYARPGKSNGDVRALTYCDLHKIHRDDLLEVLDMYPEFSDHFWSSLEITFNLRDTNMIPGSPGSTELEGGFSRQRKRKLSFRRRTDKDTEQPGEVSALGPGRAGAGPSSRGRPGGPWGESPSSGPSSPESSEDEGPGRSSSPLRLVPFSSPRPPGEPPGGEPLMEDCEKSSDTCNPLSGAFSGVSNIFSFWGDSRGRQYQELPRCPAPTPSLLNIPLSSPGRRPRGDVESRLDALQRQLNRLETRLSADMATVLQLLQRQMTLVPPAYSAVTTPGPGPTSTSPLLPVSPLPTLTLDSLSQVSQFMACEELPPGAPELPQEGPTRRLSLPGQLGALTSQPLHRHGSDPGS
On to `CCc1ccc(CNC(=O)CCCC(=O)n2nc(C)c3ccccc32)cc1`, for which the “hERG current change (%, negative = inhibition) at 10uM” value turned out to be 16.9%.
As to `C[C@@H]1CC[C@@]2(O[C@H](CCO)C[C@@H](O)[C@@H]2O)O1`, the “hERG current change (%, negative = inhibition) at 10uM” value is given as 7.47%.
Then `CCOC(=O)CCC(=O)c1c(C)oc2ccc(OC)cc12`, with -57.2%; and `Cc1c(N2C(=O)c3ccc4c5c(ccc(c35)C2=O)CC4)c(=O)n(-c2ccccc2)n1C`, with 9.84%.
For `CCOc1ccc(CN2CCNC(=O)C2CC(=O)NC2CCCCCC2)cc1` (stereo not drawn), the “hERG current change (%, negative = inhibition) at 10uM” value is listed as -32.2%.
Turning to `COc1ccc(CCn2c(-c3cc([N+](=O)[O-])cc([N+](=O)[O-])c3)nc3nc4ccccc4nc32)cc1`, the “hERG current change (%, negative = inhibition) at 10uM” value is listed as -9.44%.
The figure for `COc1ccccc1/C=C/C=N/n1c(-c2ccco2)n[nH]c1=S` is 19.6%.
The figure for `Nc1ccccc1-c1nc2ccccc2[nH]1` is -21.1%; for `Cn1nccc1C(=O)N1CCCC(C(=O)c2ccc(Oc3ccccc3)cc2)C1` (stereo not drawn) it is -25.5%.
Take `Cc1noc(C)c1CSc1nc2cc(S(=O)(=O)N3CCOCC3)ccc2o1`: the “hERG current change (%, negative = inhibition) at 10uM” value is -19.9%.
Turning to `COc1ccccc1NC(=O)C1CCOC1=O` (stereo not drawn), the “hERG current change (%, negative = inhibition) at 10uM” value was found to be 15.4%.
Then `CC[C@@]12C(=O)N(c3ccccc3)C(=O)N1[C@H](c1cccc(C)c1)[C@@H]1C(=O)N(Cc3ccccc3)C(=O)[C@@H]12`, with 14.7%; and `Cc1ccc2nnn(Cc3cccc(C(C)(C)C)c3O)c2c1`, with 8.03%; and `O=C(N/N=C1/SCC(=O)N1Cc1ccco1)c1ccccc1F`, with 20.1%.
As for `CC1CCCC(C)N1CCCNC(=O)Cn1ncc2c3ccccc3n(C)c2c1=O` (stereo not drawn), the “hERG current change (%, negative = inhibition) at 10uM” value was -36.9%.
Then `COc1ccccc1CCC(=O)N1CCN(C(=O)c2ccccc2)CC1`, with 3.26%; and `O=C(CCCC(=O)N(c1ccc2c(c1)OCCO2)C(C(=O)NC1CCCCC1)c1ccc(F)cc1)Nc1ccccn1` (stereo not drawn), with 10%.
Take `CC(C)(C)C(=O)Nc1ccc(NC(=O)C(C)(C)C)cc1`: the “hERG current change (%, negative = inhibition) at 10uM” value was -6.63%.
Consider `C=CCc1cccc2cc(C(=O)O)c(=O)oc12`, for which the “hERG current change (%, negative = inhibition) at 10uM” value is recorded as -4.02%.
Consider `CCN1CCN(c2ccc(S(=O)(=O)N3CCOCC3)cc2NC(=O)C(C)Oc2ccc(Cl)cc2)CC1` (stereo not drawn), for which the “hERG current change (%, negative = inhibition) at 10uM” value is -70.9%.
For the molecule `COc1cccc(N=C2SC(CC(=O)Nc3ccccc3)C(=O)N2Cc2ccccn2)c1` (stereo not drawn), the “hERG current change (%, negative = inhibition) at 10uM” value is given as -38.6%.
On to `Cc1ccc(Sc2nnc(Cc3ccccc3)c3ccccc23)cc1`, for which the “hERG current change (%, negative = inhibition) at 10uM” value came to 19.5%.
Then `Fc1ccccc1-c1nc(NC2CCCC2)c2ccccc2n1`, with -27.9%; and `Cc1nn(-c2ccccc2)c2c1C(c1cccc([N+](=O)[O-])c1)N(c1ccccc1)C(=O)N2` (stereo not drawn), with 11.1%; and `O=C(CCC1CCCCC1)NC1=NCCS1`, with -3.08%.
With `Cc1ccc(CNC(=O)c2cc3c(=O)n4ccccc4nc3n(CC3CCCO3)c2=N)cc1` (stereo not drawn), the “hERG current change (%, negative = inhibition) at 10uM” value is reported as -81.3%.
As to `Cc1cc(-c2nnc(-c3cccc(Cl)c3)o2)no1`, the “hERG current change (%, negative = inhibition) at 10uM” value is reported as -7.16%.
The figure for `Cc1nn(-c2ccccc2)c(C)c1NC(=O)COC(=O)c1ccc(O)cc1O` is -11.7%; for `O=[N+]([O-])c1ccc(/C=N/Nc2nc(NCc3ccccc3)nc(N3CCOCC3)n2)cc1` it is -3.91%; for `O=C(CNCC1CCCO1)Nc1ccc([N+](=O)[O-])cc1C(=O)Nc1ccccc1F` (stereo not drawn) it is -39.7%.
In the case of `N=C1C(c2nc3ccccc3[nH]2)=C(O)CN1NC(=O)c1c[nH]c2ccccc12`, the “hERG current change (%, negative = inhibition) at 10uM” value was determined as 17%.
For the molecule `O=C(c1cccs1)N1CCN(C(=O)C(c2ccccc2)c2ccccc2)CC1`, the “hERG current change (%, negative = inhibition) at 10uM” value is listed as -30.6%.
The figure for `O=C(NCc1ccccc1)C(=O)Nc1nccs1` is 2.61%; for `CC(=O)c1ccc(NC(=O)c2onc(C)c2Cl)cc1` it is 11.8%; for `COc1ccc(NC(=O)CSC2=C(C#N)C(c3ccco3)C(C(=O)Nc3nc4ccccc4s3)=C(C)N2)cc1` (stereo not drawn) it is 22.6%.
On to `CCn1ncc(Br)c1C(=O)Nc1ccc(-c2ccno2)cc1`, for which the “hERG current change (%, negative = inhibition) at 10uM” value was determined as 20.5%.
Then `O=C(N/N=C/c1cccc(Oc2ccccc2)c1)c1ccccc1Br`, with 6.92%; and `O=C(Cc1c[nH]c2ccccc12)Nc1ccccc1N1CCOCC1`, with 6.09%; and `COc1ccc(N2CN=C3SCC(=O)N3C2)cc1`, with 11.5%.
`COc1ccc(/C=N/Nc2nc(Nc3ccccc3)nc(N3CCCC3)n2)cc1`: the “hERG current change (%, negative = inhibition) at 10uM” value is 12.8%.
Turning to `CCC(C)C(NC(=O)c1ccccc1NC(=O)c1ccc(C)cc1)C(=O)O` (stereo not drawn), the “hERG current change (%, negative = inhibition) at 10uM” value is recorded as 4.9%.
On to `Cc1cc(NC(=O)CSCc2nc(-c3cccc(Cl)c3)oc2C)no1`, for which the “hERG current change (%, negative = inhibition) at 10uM” value was 10.3%.
